Experimental data from publication PMC4336329 (PLoS ONE, 2015).
The whole screen tested about 310,000 compounds, of which about 14,000 (4.5%) showed an effect of 50% or more. Effects have a minus sign here. The list shows a part of the results.

The molecules below were run against human ether-à-go-go-related gene (hERG) potassium channel (human, UniProt Q12809) (assay: primary screen, population patch clamp on CHO cells stably expressing hERG).
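Note: peak tail current of the secondary pulse compared with the same well before compound.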

Chain of human ether-à-go-go-related gene (hERG) potassium channel (Q12809 whole entry, looked up): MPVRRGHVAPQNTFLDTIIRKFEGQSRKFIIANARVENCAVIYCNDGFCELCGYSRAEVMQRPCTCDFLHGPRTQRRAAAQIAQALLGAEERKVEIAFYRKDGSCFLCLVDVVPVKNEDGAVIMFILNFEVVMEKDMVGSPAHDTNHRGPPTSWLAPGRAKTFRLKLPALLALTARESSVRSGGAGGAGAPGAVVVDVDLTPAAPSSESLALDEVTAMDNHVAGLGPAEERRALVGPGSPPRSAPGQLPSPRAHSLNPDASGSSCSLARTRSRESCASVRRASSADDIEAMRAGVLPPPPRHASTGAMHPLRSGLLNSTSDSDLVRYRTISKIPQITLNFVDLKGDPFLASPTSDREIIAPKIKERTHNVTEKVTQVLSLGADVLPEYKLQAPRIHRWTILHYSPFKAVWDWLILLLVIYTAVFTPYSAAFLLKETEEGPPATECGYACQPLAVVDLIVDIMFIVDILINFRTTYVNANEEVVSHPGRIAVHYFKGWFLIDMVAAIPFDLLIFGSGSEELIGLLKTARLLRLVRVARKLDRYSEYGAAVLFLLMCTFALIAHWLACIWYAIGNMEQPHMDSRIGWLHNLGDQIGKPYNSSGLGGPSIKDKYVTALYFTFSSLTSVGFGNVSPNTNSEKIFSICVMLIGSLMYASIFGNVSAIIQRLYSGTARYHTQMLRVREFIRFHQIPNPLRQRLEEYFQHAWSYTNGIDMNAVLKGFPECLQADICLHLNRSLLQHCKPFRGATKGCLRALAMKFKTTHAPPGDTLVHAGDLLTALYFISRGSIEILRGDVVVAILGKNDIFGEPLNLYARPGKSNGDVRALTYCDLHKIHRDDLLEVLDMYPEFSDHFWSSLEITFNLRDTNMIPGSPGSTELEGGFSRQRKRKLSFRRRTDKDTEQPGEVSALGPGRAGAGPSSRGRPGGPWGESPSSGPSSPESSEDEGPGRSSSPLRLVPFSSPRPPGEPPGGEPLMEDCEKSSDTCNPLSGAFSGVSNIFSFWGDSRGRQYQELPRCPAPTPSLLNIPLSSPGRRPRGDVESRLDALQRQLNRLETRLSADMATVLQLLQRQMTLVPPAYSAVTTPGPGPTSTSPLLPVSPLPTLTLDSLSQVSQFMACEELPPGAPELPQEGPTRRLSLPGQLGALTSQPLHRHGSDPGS

| SMILES | hERG current change (%, negative = inhibition) at 10uM [%] |
| --- | --- |
| O=C(CSc1ncn[nH]1)N1CCCCC1 | 21 |
| CCC(C(=O)NC1CCCCC1)N(Cc1cccs1)C(=O)c1snc(C(N)=O)c1N (stereo not drawn) | -16.8 |
| CCCn1c(C(=O)OC)cc2c1ccn2-c1ccc(F)cc1 | 13.4 |
| Cc1ccccc1-c1nnc(SCC(=O)N(CC(C)C)c2c(N)n(CC(C)C)c(=O)[nH]c2=O)n1C | 30.2 |
| CC(C)c1ccc(OCC(O)CN2CCN(c3ccccc3)CC2)cc1.Cl (stereo not drawn) | -47.3 |
| COc1ccc(NC(=O)CN2CCN(c3ccccc3C)CC2)cc1 | -41.2 |
| O=C(Oc1cccc(C(=O)N2CCOCC2)c1)c1ccc(Br)cc1 | -8.03 |
| COc1ccc(OC)c(NC(=O)COC(=O)CSc2ccc(Cl)cc2)c1 | -3.36 |
| COc1ccccc1CN(Cc1cc2c(C)ccc(C)c2[nH]c1=O)Cc1nnnn1Cc1ccco1 | -1.04 |
| N#CC1=C(N)Oc2n[nH]c(-c3ccccc3)c2C12C(=O)Nc1ccccc12 (stereo not drawn) | 17.4 |
| COc1ccc2cc(C(=O)C3CCCN(C(=O)c4sc(C)nc4C)C3)ccc2c1 (stereo not drawn) | -22.8 |
| N#Cc1ccccc1NC(=O)COC(=O)CSc1nc2ccccc2o1 | 9.73 |
| COc1ccc(-c2nnc(SCC(=O)O)n2Cc2ccccc2)cc1 | 23.9 |
| O=C(O)c1ccc(C2NCC(c3ccccc3Cl)c3c2[nH]c2ccccc32)cc1 (stereo not drawn) | 28.6 |
| CCOc1ccc(N(CC)S(=O)(=O)c2ccc3c(c2)oc(=O)n3C)cc1 | -5.43 |
| Cc1nc(-c2cccc(S(=O)(=O)N3CCCC(C)C3)c2)cs1 (stereo not drawn) | -9.76 |
| CC(C)NC(=O)COC(=O)C1CSC2(c3ccc(Br)cc3)CCC(=O)N12 (stereo not drawn) | -28.9 |
| Br.CCCCN1C2=NCCCN2c2ccccc21 | -54.5 |
| C/C(=C\C(=O)Nc1cc(C)on1)c1ccccc1 | 0.998 |
| O=C(CNc1cccc(S(=O)(=O)N2CCCC2)c1)Nc1cccc(Br)c1 | -18.5 |
| CCOC(=O)N1CCN(C(=O)c2ccc3c(SCC(=O)O)c4c(nc3c2)CCC4)CC1 | 11.3 |
| COc1cccc(CN(C(=O)/C=C/c2ccc(Cl)cc2)C2CCS(=O)(=O)C2)c1 (stereo not drawn) | -25.9 |
| Cn1c(=O)c2c(nc(CN3CCC(C(N)=O)CC3)n2Cc2ccccc2F)n(C)c1=O | -5.91 |
| COc1ccc(C(C(=O)NC(C)(C)C)N(Cc2cccs2)C(=O)CCC(=O)Nc2cc(C)on2)cc1 (stereo not drawn) | -9.02 |
